# The source gives no read counts; variants with many changes may rest on few reads.
# B1: LINE1-mini (parent)
# chain: GGCAGAGCUCAACACAGCGUGGCAAAGUGGCUGUGGCUAGACUGCC
# Variants of: B1
# Assay: self-cleavage, relative activity (ratio to wild type); higher = more cleavage; in vitro, sequencing; the parent is a self-cleaving ribozyme
row,Variant,self-cleavage
1,GGCAGAGCUGAACACAGCGUGGCAAAGUGGCUGUGGCUAUACUGGC [C10G G40U C45G],0.01
2,GGCAGAGCUCAACGCCUCGUGGCAAAGUGGUUGUGGCUAGACUGCC [A14G A16C G17U C31U],0.06
3,GGCGGAGCUCAACACAGUGUGGCAAAGUGGAUAUGGCUAGAUGGCC [A4G C18U C31A G33A C42U U43G],0.02
4,GGCAGAGCUCAACACAGCGUGGCAAUGCGGCUGUGGCUUGACUGCC [A26U U28C A39U],0.85
5,GGCAGAGCUCAACAACGCGUGGGAAAGUGGCUGUGGCUAGACUGCC [C15A A16C C23G],0.03
6,GGUAGAGCUCAACACAGCGUGGCAAAGUGGCUGUUGCUAGACUGCA [C3U G35U C46A],0.02
7,GGAAGAGGUCAACACAGCGUGGCAAAGUGGCUGUGGCUAGACAGCC [C3A C8G U43A],1.33
8,GGCAGCGCUCAACACAGCGUUGCAAAGUGGCCGUGGCUCGACUGCC [A6C G21U U32C A39C],0.02
9,GGCGGAGCUCAACGCAGCGUGGCAAAGUGGCUGUGGCUAGACAGCC [A4G A14G U43A],0.04
10,GGCAGAGCUCAACACAGCGGGACAAAGUUGCUGUGGCUAGACUGCC [U20G G22A G29U],0.19
11,GGCAGAGCUUAACACAGCGUGGCAAAGUGGCGGUGGCUAGCCUGCC [C10U U32G A41C],0.02
12,GGCAGAGAUCAAGACAGCUUGGCAAAGUGGGUGUGGCUAGACUGCC [C8A C13G G19U C31G],0.1
13,GGCAGAGCUCAACACAGAAUGGCAUAGUGGCUGUGGCUAGAAUGCC [C18A G19A A25U C42A],0.08
14,GGCGGAGCUCAAUACCGCGUUGCAAAGUGGCUGUGGCUAGACUGCC [A4G C13U A16C G21U],0.07
15,GCCAGAGCUCAACACAACGUAGCAACGUGGCUGUGGCUAGACGGCC [G2C G17A G21A A26C U43G],0
16,GGAAGAGCUCAACACAGUGUGGCAAAGUGGCUGUGGCUAUACCACC [C3A C18U G40U U43C G44A],0.16
17,UGCACAGCUCAACACAGCGUGGCAAAGAGGCUGUGGCUAGACUGCC [G1U G5C U28A],0
18,GGCAGAGCUCAACACAGCGUGGCAAAGGGGCUUUGGCUAGACUGAC [U28G G33U C45A],0.01
19,GGCAGAUAUCAACACAGCGUGGCAAAGUGGCUUUGGGUAGACUGCC [G7U C8A G33U C37G],0.06

row,Variant,self-cleavage
1,GACAGAGCCCAACACAGCGUGGAAAAAUGGCUGUGGCUAGACUGCA [G2A U9C C23A G27A C46A],0.14
2,GGCAGAGCUCACCACAGCGAGGAAAAGUGGCUGUGGCUAGACUGCC [A12C U20A C23A],0.03
3,AGCAGAGUUCAACGCAGCGUGGCAAAGUGGCUGUGGCUAGACUGCC [G1A C8U A14G],0.47
4,GUCAGAGCUCAACACAGCCUGGCAAAGUGGCUGUCGCUAGACUGUC [G2U G19C G35C C45U],0.02
5,GCCAGGGCUCAAAUCAGCGUGGCAAAGUGGCUGUGGCUAGACUGCC [G2C A6G C13A A14U],0.13
6,CGCAGAGCUCAACACAGCAUGGCAAAGUGGCUGUGGCUAGACGGAC [G1C G19A U43G C45A],0.02
7,GCCAGAGAUCAACAUAGCCGGGCAAAGUGGCUGUGGCUAGACUGCG [G2C C8A C15U G19C U20G C46G],0.22
8,GACAGAGCUCAACACAGCGUGACAAAGUGGCUGUGCCUAGACUGCU [G2A G22A G36C C46U],0.31
9,GGCAGAGCUCAACACAGCGUGGAUAAGAGGCUGUGGCUAGACUGCC [C23A A24U U28A],0.2
10,GGCCCAACUCAACACAGCAUUGCAAUGUGGGUGUGGCUAGACUGCC [A4C G5C G7A G19A G21U A26U C31G],0.02
11,GGCAGAGUCCAACACAGCGUGGCAAGGUGGGUGUGGCUAGACUGCC [C8U U9C A26G C31G],0.02
12,GGCAGAGCUCAACACAGCGUGGAAACGUGGCUGUGGCUAGACUGAC [C23A A26C C45A],0.73
13,GGCAGAGCUCAACAUAGCGUGGCAAAGUGGCUGUGGCUAGACUAAC [C15U G44A C45A],0.03
14,UGUAGAGCUCAAGACAGCGUGGCAAAGUGGCUGUGGCUAGACUGCC [G1U C3U C13G],0.15
15,GGCAGAGCUCACCACAGCGUUGCAAAGUGGCGGUGGCUAGACUGCC [A12C G21U U32G],0.02
16,GGCAGAGCUCAACACAGCGAGUCAAACUGGCUGUGGCUAGACUGCG [U20A G22U G27C C46G],0.63
17,GGCAGAGCUCAACACAGCGUGGGAAAGUGGCUGUGGGUAGAGUGCC [C23G C37G C42G],0.01
18,GGCAGAGAUCAACACACCGUGGGUAAGUGGCUAUGGCUAGACUGCC [C8A G17C C23G A24U G33A],0.1
19,GGCAGAGCUCAACACAGCGUGGCAAAGGGCCUGUGGCGAGACUGCC [U28G G30C U38G],0.01

row,Variant,self-cleavage
1,GGUAGAGCUCAACACUGCGUGGCACAGUGGCUGUGGCUAGACUGCC [C3U A16U A25C],0.1
2,GGAAGAUCUCAACACAGCGUGGCAAAGUGGUUGUGGCUAGACUGCC [C3A G7U C31U],0.34
3,GGCUGAGUUCAACACAGCGUGGCAAAGUGGUUGUGGCUAGACUGCC [A4U C8U C31U],0.05
4,GCCAGAGCUCAACACUGCGUGGCAAAGUGGCUUUGGCUAGACUGCC [G2C A16U G33U],0.03
5,GGAAUAGCUCAGCACAGCGUGGCAAAGUGGCUGUGGCUAGAAUGCC [C3A G5U A12G C42A],0.05
6,GGCAGAGCUCAACACAGCGUGGCCAAGUGGUUGUGGUUAGACUGCC [A24C C31U C37U],0.07
7,GGCAGAGCUCAACAAACCGUGGCAAAGUUGCUGUGGCUAGACUGCG [C15A G17C G29U C46G],0.01
8,GCCAGAGCUCAAGACAGCGUGGCAAAGUGGCUGUGCCUAGACUGCC [G2C C13G G36C],0.05
9,GACAGAGCUCAACACAGCUUGGCAUAGUGCCUGUGGCUAGACUGCU [G2A G19U A25U G30C C46U],0.07
10,GGCAAGGCUCAACACAGCGUUGCAAAGUGGCUGUGGCUAGGCUGCC [G5A A6G G21U A41G],0.05
11,GGCAGAGCUCAACACAACGAGGCAGAGGGGAUGUGGCUAGACUGCC [G17A U20A A25G U28G C31A],0.01
12,GGCAGUGCUCAACACAGCGUGGCAAAGUGGCUGAGGCUAGAAUUCC [A6U U34A C42A G44U],0.06
13,GGCAGAGCUCAAAACAGCGUGGGCAAGUGGCCGUGACUAGACUGCC [C13A C23G A24C U32C G36A],0.01
14,GGCAGAGCUCAACACAGCGUGGCAAAGCGGCUGUGGCUGCACUGCC [U28C A39G G40C],0.04
15,GUCAGAGCUCAACAUAGCGUGGCAAAGUGGUUGUGGCUAGACUGCC [G2U C15U C31U],0.01
16,CGCAGGGCUCCACACAGCGUGGCAAAGUGGUUGUGCCUAGACUGCC [G1C A6G A11C C31U G36C],0.01
17,GGCAGAGCUCAACCCAGCGAGCCAAAAUUGCUGUGGCUAGAUUGCC [A14C U20A G22C G27A G29U C42U],0.02
18,GGCAGAGAUCAAAACAGCGUGGCAAAGUGGCUGUGGCAAGACUGCC [C8A C13A U38A],0.05

# — the RNAGym collection of RNA variant scans (doi:10.7554/elife.90254)
